# Results published in PubChem BioAssay AID2202238 (Ras Initiative Chemistry Research Team, Frederick National …, 2025).
# The other results are listed elsewhere or left out. Further columns of the screen follow, without active or inactive calls.
# Molecular target: GTPase KRas (Homo sapiens) (UniProt P01116)
# Assay: Cysteine mutants labelled by reactive fragments (mass read-out) (AID 2202238)
# Set-up: protein at 5 µM with 500 µM competing thiol for 1.5 h
# Details: KRAS G12D cysteine mutants, disulfide tethering, MALDI-TOF labeling, stronger effect = higher value, fragment at 500 µM
# [1] = measured here: G60C mutant labeling
# [2] = measured here: G75C mutant labeling
# [3] = measured here: H94C mutant labeling
# [4] = measured here: I36C mutant labeling
# [5] = measured here: L120C mutant labeling
# [6] = measured here: M67C mutant labeling
# [7] = measured here: M72C mutant labeling
# [8] = measured here: N26C mutant labeling
# [9] = measured here: N86C mutant labeling
# [10] = measured here: P121C mutant labeling
# [11] = measured here: S122C mutant labeling
# [12] = measured here: S136C mutant labeling
# Chain of UniProt P01116 (P01116 whole entry, looked up, the tested form may be a part): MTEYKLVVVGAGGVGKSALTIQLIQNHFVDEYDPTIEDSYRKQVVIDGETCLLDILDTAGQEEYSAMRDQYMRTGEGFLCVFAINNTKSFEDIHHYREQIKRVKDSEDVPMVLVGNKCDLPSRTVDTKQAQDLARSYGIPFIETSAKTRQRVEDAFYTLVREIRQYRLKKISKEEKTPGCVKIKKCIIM
Compound,percent labeling [1],percent labeling [2],percent labeling [3],percent labeling [4],percent labeling [5],percent labeling [6],percent labeling [7],percent labeling [8],percent labeling [9],percent labeling [10],percent labeling [11],percent labeling [12]
CC1(C)Cc2ccc(C(=O)NCCS)c(O)c2O1,26.6%,13.4%,18.7%,11.1%,51.3%,17%,46.7%,32%,21.1%,19.5%,20%,31.1%
CN(Cc1nc2ccccc2[nH]1)C1CCN(C(=O)CCS)CC1,–,18.1%,32.5%,53.7%,28.4%,82%,30.6%,–,30.2%,30.6%,29.8%,59.4%
Cc1nc2ccccc2c(C)c1C(=O)NCCS,44.2%,23%,32.7%,28.2%,27.4%,31.9%,33.7%,51.1%,33%,54.6%,25.3%,51.9%
O=C(CCS)NCc1nnc2n1CCNC2=O,–,3.6%,14.7%,20.2%,26.2%,20.5%,3.2%,–,13.5%,24.9%,29%,35.3%
COc1cccc2c(=O)c(C)c(C(=O)NCCS)[nH]c12,28.5%,17.7%,27.9%,26.4%,29.4%,28.2%,44%,53%,29.6%,79.3%,27.8%,46.7%
O=C(CCS)NCCn1nc2ccccn2c1=O,–,6.6%,20.2%,33.8%,26.6%,28.9%,4.6%,–,17%,29.5%,29.7%,46.8%
O=C(CCS)Nc1cn(Cc2ccccc2)nn1,–,10.4%,13.3%,34.3%,17.4%,28.2%,31.6%,–,5.7%,17.9%,20.4%,37.4%
O=C(Cn1ncc2ccccc2c1=O)NCCS,35.6%,17.3%,27.8%,29.9%,54.3%,35.5%,34.8%,36.6%,29.3%,34.9%,32.4%,44.4%
O=C(CCS)NCCc1cccc(C(F)(F)F)n1,–,14.2%,41%,44.1%,37.7%,49.2%,35.7%,–,38.9%,41.8%,42.5%,56%
CC(CC(=O)NCCS)Cc1ccc(Cl)cc1 (stereo not drawn),36.8%,13.3%,15.9%,10.7%,21.2%,13.1%,22.3%,39.7%,6.4%,15.1%,10.5%,16.2%
O=C(CCS)NCCc1nc2ccc(F)cc2[nH]1,–,14.5%,30.4%,50.3%,32.2%,43.2%,33%,–,21.4%,35.2%,27.5%,50.5%
O=C(CCS)Nc1cnc(N2CCOCC2)c(Br)c1,–,15.1%,22.4%,18.7%,21.4%,18%,46.6%,–,8.9%,17.4%,14.4%,37.8%
COc1c(C(=O)NCCS)sc(Cl)c1Cl,54.9%,28.4%,25.5%,9.9%,18.9%,14.6%,32.8%,25.7%,14.5%,11.1%,11.7%,18.2%
O=C(CCS)Nc1ccn(CCOCCO)n1,–,7.4%,26.3%,28.9%,32.4%,22%,15.6%,–,23.8%,28.3%,32.6%,41.1%
O=C(NCCS)C1C2C=CC(C2)C1c1ccccc1 (stereo not drawn),32.9%,6.1%,10.3%,9.3%,15.4%,17.5%,11%,17.9%,4.8%,11.5%,9.6%,30.3%
O=C(NCCS)c1cc(Br)cn(C2CC2)c1=O,41.1%,18.7%,33.4%,24.8%,40.2%,36.5%,44.2%,37.1%,19%,22.6%,23.2%,46.5%
CC(C)(C)OC(=O)N1CCC12CCN(C(=O)CCS)CC2,–,21.2%,32.1%,33%,31.9%,39.5%,25.9%,–,23.6%,29.2%,31.2%,49.4%
O=C(CC1COCCN1CC(F)(F)F)NCCS (stereo not drawn),26.6%,9.8%,28.1%,19.3%,33.2%,27.4%,16.9%,29.1%,24.8%,30%,29.7%,36%
O=C(NCCS)c1ccc(-n2nccc2-c2ccc(F)cc2)cc1,18.8%,13.8%,12.3%,7.7%,11%,8.7%,27.7%,20.8%,5.9%,9.2%,5.3%,13%
Cc1cc(C)n(-c2ccc(Cl)c(C(=O)NCCS)n2)n1,19.7%,8.5%,17%,9.3%,12.4%,12.8%,21%,25.4%,6.8%,10.5%,8.1%,16.7%
Cc1ccc(C(O)(CC(=O)NCCS)C(F)(F)F)o1 (stereo not drawn),56.1%,14%,31.6%,25.9%,39.3%,28.9%,36.4%,31.7%,35.4%,31.2%,30%,41.2%
O=C(NCCS)c1c[nH]cc(C(F)(F)F)c1=O,39.5%,22.6%,31.9%,22.5%,66.9%,30.2%,25.8%,42.2%,27.8%,33.6%,35.2%,42.5%
COc1c(F)c(F)cc2c(=O)c(C(=O)NCCS)cn(C3CC3)c12,18.3%,12%,7.8%,4.6%,4.8%,5%,0%,18.4%,0%,4.1%,0%,9.1%
